From PMC9352346
Positions count from the first letter of the chain named. In names and notes the source's numbering stands. Results are given in words; binding and its absence hold for the method and conditions named. For some of these results: In cells and extracts the contact can be indirect. Some binding calls cover weakened binding; strength is not graded here. For some of these results: Sequences can lack the tags named with a protein.

The chains behind the UniProt entries cited, without tags or fusion partners. Residues count along the entry.
UniProt Q15797, residues 271-465: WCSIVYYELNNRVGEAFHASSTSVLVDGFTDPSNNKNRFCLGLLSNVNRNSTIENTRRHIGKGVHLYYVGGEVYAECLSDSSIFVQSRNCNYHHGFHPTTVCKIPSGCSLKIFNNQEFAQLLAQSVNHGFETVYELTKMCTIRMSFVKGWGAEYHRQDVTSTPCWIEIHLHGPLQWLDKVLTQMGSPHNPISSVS
UniProt P84022, residues 232-425: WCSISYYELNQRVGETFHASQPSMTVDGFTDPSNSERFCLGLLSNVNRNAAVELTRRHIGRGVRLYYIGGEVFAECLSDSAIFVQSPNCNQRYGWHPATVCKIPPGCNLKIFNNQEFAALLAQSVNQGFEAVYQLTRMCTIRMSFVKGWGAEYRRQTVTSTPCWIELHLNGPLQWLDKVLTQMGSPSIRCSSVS

Tests used:
GST-Smad4-MH2 [1] = target: GST-Smad4-MH2 (UniProt Q13485); assay: pull-down; bead-immobilized GST-fusions of MH2 domains incubated with purified His-tagged Arl15-AL or TN; immunoblotted against His-Tag; both purified
[2] = target: GST-fusion of the MH2 domain of Smad1 (UniProt Q15797); assay: as above
[3] = target: GST-fusion of the MH2 domain of Smad2 (UniProt Q15796); assay: as above
[4] = target: GST-fusion of the MH2 domain of Smad3 (UniProt P84022); assay: as above
[5] = target: endogenous Smad4 (human (endogenous in HEK293T)) (UniProt Q13485); assay: co-IP; HEK293T cell lysates incubated with anti-Smad4 antibody in the presence of 1 µM GMPPNP; immunoblotted against Arl15 and Smad4
[6] = target: endogenous Smad4 (human (endogenous in HEK293T)) (UniProt Q13485); assay: co-IP; HEK293T cells after Arl15 or control (GL2-shRNA) knockdown, serum-starved 4 hr, then further starvation or 5 ng/ml TGFβ1 for 20 hr; lysates incubated with anti-Smad4 antibody
[7] = target: endogenous Smad4 (human (endogenous in HEK293T)) (UniProt Q13485); assay: co-IP; HEK293T cell lysates incubated with anti-Smad4 antibody in the presence of 1 µM GDP; immunoblotted against Arl15 and Smad4
[8] = target: endogenous Smad4 (human (endogenous in HEK293T)) (UniProt Q13485); assay: as above; remark: listed apart in the source
HA-Smad4-MH2 = HA-Smad4-MH2 (UniProt Q13485); assay: pull-down; competition in the pull-down of a13: Arl15-AL and HA-Smad4-MH2 co-expressed in HEK293T cells; loss of HA-Smad4-MH2 from GST-Smad4-MH1 beads
GST-Smad4 [9] = target: GST-Smad4 (UniProt Q13485); assay: pull-down; bead-immobilized GST-Smad4 incubated with HeLa cell lysates expressing Arl15-AL-Myc harboring indicated mutation; immunoblotted against Myc-tag; only the target purified
GST-Smad4-MH2 [10] = target: GST-Smad4-MH2 (UniProt Q13485); assay: pull-down; bead-immobilized GST-fusions of Smad4 fragments incubated with HEK293T cell lysate expressing Arl15-AL-GFP; immunoblotted against GFP; 4 °C; only the target purified
GST-Smad4-MH1 = GST-Smad4-MH1 (UniProt Q13485); assay: as above
GST-Smad4 [11] = target: GST-Smad4 (UniProt Q13485); assay: as above
GST-Smad4, Q13485 = target: T1, GST-Smad4, Q13485; assay: pull-down; bead-immobilized GST-Smad4 incubated with HEK293T cell lysates expressing GFP-Smad2 or GFP-Smad1 (WT, SA or SE) with or without overexpressed Arl15-AL; only the target purified; conditions: remark: other sources report otherwise
T1 chain: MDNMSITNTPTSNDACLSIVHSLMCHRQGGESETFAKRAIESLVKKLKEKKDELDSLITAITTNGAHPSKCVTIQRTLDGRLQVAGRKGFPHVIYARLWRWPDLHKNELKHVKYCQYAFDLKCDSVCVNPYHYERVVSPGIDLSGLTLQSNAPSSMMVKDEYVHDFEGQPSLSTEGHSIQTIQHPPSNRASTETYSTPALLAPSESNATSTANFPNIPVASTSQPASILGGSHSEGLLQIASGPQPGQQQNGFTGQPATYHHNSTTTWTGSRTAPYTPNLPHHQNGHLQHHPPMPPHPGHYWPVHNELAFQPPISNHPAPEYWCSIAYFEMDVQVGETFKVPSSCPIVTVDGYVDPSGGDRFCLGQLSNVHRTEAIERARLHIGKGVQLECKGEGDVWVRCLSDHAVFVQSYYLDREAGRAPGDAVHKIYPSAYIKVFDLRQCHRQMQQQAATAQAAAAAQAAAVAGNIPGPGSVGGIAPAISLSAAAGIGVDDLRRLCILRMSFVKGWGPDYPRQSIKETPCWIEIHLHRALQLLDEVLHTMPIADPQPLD

GFP-Smad2 (WT), Q15796 = assay: co-IP; HEK293T cell lysates co-expressing GFP- and Myc-tagged proteins incubated with anti-GFP antibody, captured on protein A/G beads; with or without overexpressed Arl15-AL (Figure 4f); conditions: remark: other sources report otherwise

B1: His-Arl15-AL (protein, UniProt Q9NXU5 1-204)
chain: MSDLRITEAFLYMDYLCFRALCCKGPPPARPEYDLVCIGLTGSGKTSLLSKLCSESPDNVVSTTGFSIKAVPFQNAILNVKELGGLDNIRKYWSRYYQGSQGVIFVLDSASSEDDLEAARNELHSALQHPQLCTLPFLILANHQDKPAARSVQEIKKYFELEPLARGKRWILQPCSLDDMDALKDSFSQLINLLEEKDHEAVRM
In the case of B1, the binding (GST-Smad4-MH2 [1]) is reported as “binds”, the binding [2] is reported as “no binding” and the binding [3] is reported as “no binding”. The binding [4] was “no binding”.

B2: endogenous Arl15 (protein, UniProt Q9NXU5 1-204)
chain: B1 chain with L86A
For B2, the binding [5] was “binds”, the binding [6] was “binds” and the binding [7] was “binds weakly”. The binding [8] was “no binding (condition: with 1 µM GDP)”.

B3: Arl15-AL (co-expressed in the MH1-MH2 pull-downs of Figure 4a and c) (protein, UniProt Q9NXU5 1-204)
chain: B1 chain
B3 was tested, and the binding (HA-Smad4-MH2) was “binds”.

B4: Arl15-AL-Myc (protein, UniProt Q9NXU5 1-204)
chain: B1 chain
For B4, the binding (GST-Smad4 [9]) was “binds”.

B5: Arl15-AL-Myc R90L (protein, UniProt Q9NXU5 1-204)
chain: B1 chain with R90L
For B5, the binding (GST-Smad4 [9]) was “binds”.

B6: Arl15-AL-Myc R95C (protein, UniProt Q9NXU5 1-204)
chain: B1 chain with R95C
In the case of B6, the binding (GST-Smad4 [9]) is reported as “binds”.

B7: Arl15-AL-Myc Y96F (protein, UniProt Q9NXU5 1-204)
chain: B1 chain with Y96F
In the case of B7, the binding (GST-Smad4 [9]) is reported as “binds”.

B8: Arl15-AL-GFP (protein, UniProt Q9NXU5 1-204)
chain: B1 chain
B8 was tested, and the binding (GST-Smad4-MH2 [10]) was “binds”, the binding (GST-Smad4-MH1) was “no binding” and the binding (GST-Smad4 [11]) was “binds”.

B9: His-Arl15-TN (protein, UniProt Q9NXU5 1-204)
chain: B1 chain with T46N, L86A
In the case of B9, the binding (GST-Smad4-MH2 [1]) is reported as “no binding”, the binding [2] is reported as “no binding” and the binding [3] is reported as “no binding”. For the same binder, the binding [4] was “no binding”.

B10: GFP-Smad2 (WT), Q15796 1-467 (protein)
chain: MSSILPFTPPVVKRLLGWKKSAGGSGGAGGGEQNGQEEKWCEKAVKSLVKKLKKTGRLDELEKAITTQNCNTKCVTIPSTCSEIWGLSTPNTIDQWDTTGLYSFSEQTRSLDGRLQVSHRKGLPHVIYCRLWRWPDLHSHHELKAIENCEYAFNLKKDEVCVNPYHYQRVETPVLPPVLVPRHTEILTELPPLDDYTHSIPENTNFPAGIEPQSNYIPETPPPGYISEDGETSDQQLNQSMDTGSPAELSPTTLSPVNHSLDLQPVTYSEPAFWCSIAYYELNQRVGETFHASQPSLTVDGFTDPSNSERFCLGLLSNVNRNATVEMTRRHIGRGVRLYYIGGEVFAECLSDSAIFVQSPNCNQRYGWHPATVCKIPPGCNLKIFNNQEFAALLAQSVNQGFEAVYQLTRMCTIRMSFVKGWGAEYRRQTVTSTPCWIELHLNGPLQWLDKVLTQMGSPSVRCSSMS
For B10, the binding (GST-Smad4, Q13485) was “no binding”.

B11: Myc-Smad4, Q13485 1-552 (protein)
chain: T1 chain
With B11 the binding (GFP-Smad2 (WT), Q15796) was “no binding”.
